Measured values published in PubChem BioAssay AID1745853 (National Center for Advancing Translational Sciences (NCATS), 2022).
The other results are listed elsewhere or left out. Further columns of the screen follow, without active or inactive calls.

Assays:
Assay in all cases: Primary Screen for Target Class Profiling of Small Molecule Inhibitors of Methyltransferases
[1] = biological target: Glycine N-methyltransferase (Homo sapiens) (UniProt Q14749); conditions: purified enzyme, MTase-Glo SAH luminescence; measured here: GNMT inhibition; at 40 µM; stronger effect = lower value
Method in brief: (§1)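 Each enzyme was reacted with SAM and its substrate, with compounds tested once at 40 uM; SAH formed was read by MTase-Glo luminescence.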

[2] = biological target: Guanidinoacetate N-methyltransferase (Homo sapiens) (UniProt Q14353); conditions: purified enzyme, MTase-Glo SAH luminescence; measured here: GAMT inhibition; at 40 µM; stronger effect = lower value
Method in brief: as §1

[3] = biological target: Histamine N-methyltransferase (Homo sapiens) (UniProt P50135); conditions: purified enzyme, MTase-Glo SAH luminescence; measured here: HNMT inhibition; at 40 µM; stronger effect = lower value
Method in brief: as §1

[4] = biological target: Nicotinamide N-methyltransferase (Homo sapiens) (UniProt P40261); conditions: purified enzyme, MTase-Glo SAH luminescence; measured here: NNMT inhibition; at 40 µM; stronger effect = lower value
Method in brief: as §1

[5] = biological target: Phenylethanolamine N-methyltransferase (Homo sapiens) (UniProt P11086); conditions: purified enzyme, MTase-Glo SAH luminescence; measured here: PNMT inhibition; at 40 µM; stronger effect = lower value
Method in brief: as §1
% is set by controls: 0 for no effect and ±100 for the full control effect.

Compound: CCc1ccccc1NC(=O)CSc1nnc2n(Cc3ccc(C)cc3)c(=O)c3ccccc3n12
- activity change, negative = inhibition [1]: -6.06%
- activity change, negative = inhibition [2]: -0.072%
- activity change, negative = inhibition [3]: -1.57%
- activity change, negative = inhibition [4]: -7.63%
- activity change, negative = inhibition [5]: -5.37%

Compound: CCCn1c(=O)c2cc(Cl)ccc2n2c(=O)n(CC(=O)Nc3ccc4c(c3)OCCO4)nc12
- activity change, negative = inhibition [1]: -0.765%
- activity change, negative = inhibition [2]: 1.92%
- activity change, negative = inhibition [3]: 5.2%
- activity change, negative = inhibition [4]: 0.22%
- activity change, negative = inhibition [5]: -0.473%

Compound: O=C(NO)c1cnc(N2CCN(S(=O)(=O)c3ccc4ccccc4c3)CC2)nc1
- activity change, negative = inhibition [1]: -1.34%
- activity change, negative = inhibition [2]: 1.03%
- activity change, negative = inhibition [3]: 1.27%
- activity change, negative = inhibition [4]: -13.7%
- activity change, negative = inhibition [5]: -2.09%

Compound: Cc1ccc(CN2C(=O)c3cc(-c4ccccc4)nn3CC2(C)C(=O)NCc2ccccc2)cc1 (stereo not given)
- activity change, negative = inhibition [1]: 3.97%
- activity change, negative = inhibition [2]: 4.24%
- activity change, negative = inhibition [3]: 7.01%
- activity change, negative = inhibition [4]: 4%
- activity change, negative = inhibition [5]: 2.77%

Compound: CC1(C(=O)NC2CCCCC2)Cn2c(cc3ccccc32)C(=O)N1Cc1ccccc1Cl (stereo not given)
- activity change, negative = inhibition [1]: -5.81%
- activity change, negative = inhibition [2]: -0.715%
- activity change, negative = inhibition [3]: -1.59%
- activity change, negative = inhibition [4]: -4.22%
- activity change, negative = inhibition [5]: -2.55%

Compound: CCCn1c(=O)c2ccc(C(=O)NC3CCCC3)cc2n2c(SCC(=O)c3ccc(F)cc3)nnc12
- activity change, negative = inhibition [1]: 7.77%
- activity change, negative = inhibition [2]: 0%
- activity change, negative = inhibition [3]: 7.13%
- activity change, negative = inhibition [4]: -3.43%
- activity change, negative = inhibition [5]: 3.55%

Compound: Cc1ccc2c(c1)C1C=CCC1C(c1ccccc1Cl)N2 (stereo not given)
- activity change, negative = inhibition [1]: -6.88%
- activity change, negative = inhibition [2]: -1.77%
- activity change, negative = inhibition [3]: -7.63%
- activity change, negative = inhibition [4]: -1.67%
- activity change, negative = inhibition [5]: -9.32%

Compound: COC1CCN(C(=O)Nc2ccccc2)CC(=O)N(C)c2ccccc21 (stereo not given)
- activity change, negative = inhibition [1]: -6.72%
- activity change, negative = inhibition [2]: -6.83%
- activity change, negative = inhibition [3]: -4.04%
- activity change, negative = inhibition [4]: -8.29%
- activity change, negative = inhibition [5]: -37.1%

Compound: CC(C)OCCCNC(=O)CNC(=O)C1(C)Cn2c(cc3ccccc32)C(=O)N1C (stereo not given)
- activity change, negative = inhibition [1]: -8.96%
- activity change, negative = inhibition [2]: 4.21%
- activity change, negative = inhibition [3]: -8.63%
- activity change, negative = inhibition [4]: -7.29%
- activity change, negative = inhibition [5]: -1.43%

Compound: O=[S+]1([O-])[C@@H](c2ccccc2)[C@H](COCc2ccccc2)CN1C1CC1
- activity change, negative = inhibition [1]: -6.12%
- activity change, negative = inhibition [2]: -4.97%
- activity change, negative = inhibition [3]: -1.86%
- activity change, negative = inhibition [4]: -8.48%
- activity change, negative = inhibition [5]: 10.2%

Compound: CCOc1ccccc1CN1C(=O)CSc2c(c3ccccc3n2C)C1C(=O)NCCC(C)C (stereo not given)
- activity change, negative = inhibition [1]: 12.5%
- activity change, negative = inhibition [2]: 0%
- activity change, negative = inhibition [3]: 1.49%
- activity change, negative = inhibition [4]: -0.748%
- activity change, negative = inhibition [5]: 5.64%

Compound: CC(C)N1CCN(C(=O)c2csc(N3CCN(c4cccc(Cl)c4)CC3)n2)CC1
- activity change, negative = inhibition [1]: -9.1%
- activity change, negative = inhibition [2]: -11.2%
- activity change, negative = inhibition [3]: -13.7%
- activity change, negative = inhibition [4]: -18%
- activity change, negative = inhibition [5]: -9.77%

Compound: CCCc1cc2c(-c3ccccc3)cc(=O)oc2cc1OCc1ccc(C(=O)O)o1
- activity change, negative = inhibition [1]: -57.5%
- activity change, negative = inhibition [2]: 1.57%
- activity change, negative = inhibition [3]: -6.71%
- activity change, negative = inhibition [4]: -23%
- activity change, negative = inhibition [5]: -32.1%

Compound: Cn1c(Cn2ccnc2)nnc1C1CC(NC(=O)c2ccc(CO)o2)C1 (stereo not given)
- activity change, negative = inhibition [1]: -3.83%
- activity change, negative = inhibition [2]: -5.73%
- activity change, negative = inhibition [3]: -2.58%
- activity change, negative = inhibition [4]: -12.4%
- activity change, negative = inhibition [5]: -5.93%

Compound: Cc1noc(C)c1CC(=O)N1CC(=O)N(C2CCCCC2)CC(OCc2ccccc2)C1 (stereo not given)
- activity change, negative = inhibition [1]: -5.72%
- activity change, negative = inhibition [2]: -9.64%
- activity change, negative = inhibition [3]: -2.83%
- activity change, negative = inhibition [4]: -11.7%
- activity change, negative = inhibition [5]: -7.2%

Compound: CCC(C)NC(=O)c1ccc2c(=O)n(C)c3nn(CC(=O)Nc4cc(F)ccc4F)c(=O)n3c2c1 (stereo not given)
- activity change, negative = inhibition [1]: 5.07%
- activity change, negative = inhibition [2]: 0%
- activity change, negative = inhibition [3]: 5.66%
- activity change, negative = inhibition [4]: -2.87%
- activity change, negative = inhibition [5]: 2.76%

Compound: CC(C)OCCCn1c(=O)c2ccccc2n2c(=O)n(Cc3ccccc3)nc12
- activity change, negative = inhibition [1]: -4.69%
- activity change, negative = inhibition [2]: 3.83%
- activity change, negative = inhibition [3]: -3.21%
- activity change, negative = inhibition [4]: -2.05%
- activity change, negative = inhibition [5]: -0.509%

Compound: COc1ccc(N2C(=O)c3ccc(-c4ccco4)n3CC2(C)C(=O)NCc2ccc(Cl)cc2)cc1 (stereo not given)
- activity change, negative = inhibition [1]: -17.2%
- activity change, negative = inhibition [2]: 1.87%
- activity change, negative = inhibition [3]: 0.614%
- activity change, negative = inhibition [4]: -5.23%
- activity change, negative = inhibition [5]: -2.24%

Compound: COCc1ccc(C(=O)N2CCN(CCO)CC(O)C2)cc1 (stereo not given)
- activity change, negative = inhibition [1]: -4.16%
- activity change, negative = inhibition [2]: -0.411%
- activity change, negative = inhibition [3]: 0.98%
- activity change, negative = inhibition [4]: -2.77%
- activity change, negative = inhibition [5]: 14.6%

Compound: CC(C)CCNC(=O)C1(C)Cn2c(cc3ccccc32)C(=O)N1CCc1ccc(Cl)cc1 (stereo not given)
- activity change, negative = inhibition [1]: 7.93%
- activity change, negative = inhibition [2]: 1.41%
- activity change, negative = inhibition [3]: 10.8%
- activity change, negative = inhibition [4]: 0.042%
- activity change, negative = inhibition [5]: 3.68%

Compound: COc1ccccc1CNC(=O)C1c2c(n(C)c3ccccc23)SCC(=O)N1c1ccc2c(c1)OCO2 (stereo not given)
- activity change, negative = inhibition [1]: 6.28%
- activity change, negative = inhibition [2]: 1.09%
- activity change, negative = inhibition [3]: -0.156%
- activity change, negative = inhibition [4]: -2.32%
- activity change, negative = inhibition [5]: 3.33%

Compound: Cc1cc(C)n(-c2nc3cc(Cl)ccc3nc2Nc2ccc3c(c2)n(C)c(=O)n3C)n1
- activity change, negative = inhibition [1]: -7.31%
- activity change, negative = inhibition [2]: 2.16%
- activity change, negative = inhibition [3]: -1.53%
- activity change, negative = inhibition [4]: 6.46%
- activity change, negative = inhibition [5]: -4.07%

Compound: Cc1cc(N=Nc2ccc(S(=O)(=O)Nc3ccccn3)cc2)c(N)cc1O
- activity change, negative = inhibition [1]: -24.5%
- activity change, negative = inhibition [2]: -9.52%
- activity change, negative = inhibition [3]: -15%
- activity change, negative = inhibition [4]: -31%
- activity change, negative = inhibition [5]: -20.4%

Compound: CC(=O)O[C@H]1[C@@H](O)[C@H](O[C@H]2[C@@H]3C=CO[C@@H](O[C@H]4O[C@@H](CO)[C@H](O)[C@@H](O)[C@@H]4O)[C@@H]3[C@@]3(CO)O[C@@H]23)O[C@@H](C)[C@@H]1OC(=O)/C=C/c1ccccc1
- activity change, negative = inhibition [1]: -1.48%
- activity change, negative = inhibition [2]: 2.71%
- activity change, negative = inhibition [3]: -25.2%
- activity change, negative = inhibition [4]: -7.51%
- activity change, negative = inhibition [5]: 1.52%

Compound: CC(CN1C(=O)c2nc3ccccc3n2CC1(C)C(=O)NC1CCCCC1)c1ccccc1 (stereo not given)
- activity change, negative = inhibition [1]: -4.1%
- activity change, negative = inhibition [2]: 3.53%
- activity change, negative = inhibition [3]: -4.76%
- activity change, negative = inhibition [4]: -3.61%
- activity change, negative = inhibition [5]: -5.75%

Compound: CCCn1c(=O)c2ccc(C(=O)NC(C)C)cc2n2c(=O)n(Cc3ccc(F)cc3)nc12
- activity change, negative = inhibition [1]: 5.48%
- activity change, negative = inhibition [2]: 3.13%
- activity change, negative = inhibition [3]: 11.4%
- activity change, negative = inhibition [4]: 1.35%
- activity change, negative = inhibition [5]: 9.69%

Compound: COC1CC(=O)CCC(C)OC(=O)CC1O (stereo not given)
- activity change, negative = inhibition [1]: 0%
- activity change, negative = inhibition [2]: 5.89%
- activity change, negative = inhibition [3]: 5.08%
- activity change, negative = inhibition [4]: -5.33%
- activity change, negative = inhibition [5]: 4.95%

Compound: CC1(C(=O)NC2CCCCCC2)Cn2c(ccc2-c2ccco2)C(=O)N1C1CCCCCC1 (stereo not given)
- activity change, negative = inhibition [1]: -14.8%
- activity change, negative = inhibition [2]: 3.32%
- activity change, negative = inhibition [3]: -8.48%
- activity change, negative = inhibition [4]: -26.5%
- activity change, negative = inhibition [5]: -4.48%

Compound: CCOc1ccc2ccccc2c1C(C(=O)O)N1CCN(CC2CC2)CC1 (stereo not given)
- activity change, negative = inhibition [1]: -8.79%
- activity change, negative = inhibition [2]: -9.41%
- activity change, negative = inhibition [3]: -3.45%
- activity change, negative = inhibition [4]: -15.2%
- activity change, negative = inhibition [5]: -8.69%

Compound: N#CC(c1ccnc(OCc2ccc(CN3CCOCC3)cc2)n1)c1nc2ccccc2s1 (stereo not given)
- activity change, negative = inhibition [1]: -8.99%
- activity change, negative = inhibition [2]: -5.47%
- activity change, negative = inhibition [3]: -1.79%
- activity change, negative = inhibition [4]: -19.6%
- activity change, negative = inhibition [5]: -3.1%
